Measured values from ChEMBL document CHEMBL4888484, “Replenishing the malaria drug discovery pipeline: Screening and hit evaluation of the MMV Hit Generation Library 1 (HGL1) against asexual blood stage Plasmodium falciparum ,using a nano luciferase reporter read-out” (2022).
Among all 150,000 compounds or so, about 540 (0.36%) showed an effect of 50% or more. The list shows a part of the results.

Test system: Plasmodium falciparum
Assay: Primary screen in NF54 nanoGlo assay, in single point, at 2uM, 72h; a lower Z score goes with more inhibition
Format: functional, Erythrocyte
Conditions: timepoint 72 hour

Row | Structure (SMILES) | % Inhibition [%] | Z score
1 | Cc1ccc(NC(=O)CN2CC[C@H](N3CCCCC3)C2)cc1F | -11 | 2.01
2 | CC(C)CNC(=O)[C@H](C)Nc1cccc(C(N)=O)c1 | 1 | -0.1
3 | CCc1nsc(NCc2nnc3ccc(N(C)C)nn23)n1 | -4 | 0.72
4 | CC(=O)N[C@@H]1CC[C@H]2CCOc3ccccc3C(=O)N3CCN(C(C)C)C[C@H]3C(=O)NC[C@H]1O2 | -1 | 0.15
5 | Cc1cc(C)c(CN2[C@H]3CCNC[C@@H]2CC3)c(-n2cccn2)c1 | 9 | -1.3
6 | O=C(Nc1ccc(Oc2ccccc2)cn1)[C@@H]1CCCc2[nH]ncc21 | -4 | 0.43
7 | Cc1ccc(Nc2nn(CN3CCCC3)c(=S)s2)cc1Cl | -16 | 3.08
8 | O=C(C(=O)N1CCO[C@@H](Cc2cccc3ccccc23)C1)c1ccco1 | 7 | -0.95
9 | O=C1[C@@H]2C[C@@H](O)CN2C2(CN(Cc3ccccn3)C2)C(=O)N1Cc1ccccc1Cl | -3 | 0.53
10 | O=C(OC1CS(=O)(=O)CC1Nc1ccccc1)c1ccc(Cl)cc1 (stereo not drawn) | 4 | -0.54
11 | CN(Cc1ccccc1)c1nc2c(c(Oc3ccc(F)cc3)n1)CN(C(=O)Nc1cccc(Cl)c1)CC2 | 0 | 0.02
12 | CC(C)(C)OC(=O)N[C@@H]1CCCCC[C@H]1NC(=O)c1cnn(C(C)(C)C)c1 | -13 | 1.3
13 | COC(=O)[C@@H](c1cc(F)c(F)c(F)c1)N(C)Cc1nnc(C)n1C | -6 | 0.8
14 | Cc1ncc(CO)c(CN(C)[C@@H](C)c2ccccn2)c1O | -10 | 1.02
15 | Cc1cc(C(=O)N2CC[C@@]3(CCCN(CCc4ccccc4)C3)C2)n[nH]1 | -13 | 2.45
16 | C[C@@H]1CN(C(=O)CN(C)Cc2ccc(F)cc2)CC[C@@]1(O)C1CCOCC1 | -9 | 1.65
17 | CCOCCN(C)C(=O)c1cnn(C(C)(C)C)c1 | -2 | 0.15
18 | CCOC1CC1C(=O)N1CCc2ccc(OC)cc2C1 (stereo not drawn) | -5 | 0.83
19 | CC(Cc1cccc(F)c1)C(=O)NCC(C)N(C)C(=O)C(C)Cc1cccc(F)c1 (stereo not drawn) | 1 | -0.18
20 | CCCc1cc(N2CCN[C@H](C(=O)Nc3ccc(F)cc3)C2)nc(C)n1 | -11 | 1.1
21 | CCCN(CC)c1ccc(C(=O)O)cc1 | -14 | 1.95
22 | CCOc1ccc(NC(=O)c2cnc(N3CC=C(c4ccccc4)CC3)nc2N)cc1 | 35 | -3.93
23 | C[C@H]1Cc2ccccc2N1CCNC(=O)Cc1cncnc1 | -8 | 1.33
24 | Cc1ccc(C(=O)Nc2cccc(NC(=O)c3ccc(C)o3)n2)o1 | -10 | 1.32
25 | Cc1occc1C(=O)Nc1cnccc1N1CCCCC1 | 0 | -0.03
26 | CC(C)NC(=O)CCNC(=NC1CC1)NCc1ccccc1 | 13 | -2.08
27 | N/C(c1nonc1N)=[N+](/[O-])C(=O)c1sc2ccccc2c1Cl | 20 | -2.53

Row | Structure (SMILES) | % Inhibition [%] | Z score
28 | CCCc1ccc(OCCNC(=O)[C@H]2CC23CCNCC3)cc1 | 2 | -0.33
29 | O=C(NCc1ccncc1)NC1CCC2(CCOCC2)CC1 | -14 | 2.57
30 | Cc1ccc(S(=O)(=O)Nc2ccc(C)n(CC(=O)N(C)Cc3ccco3)c2=O)cc1 | -9 | 1.22
31 | Cc1ccc(Br)c(C(=O)N[C@@H](CO)c2cncn2C)n1 | -4 | 0.76
32 | CCc1ncc(CN2CCC3(CC2)C[C@@H](c2ccccc2)C(=O)N(C)C3)cn1 | -9 | 1.2
33 | CCCC[n+]1nn(-c2cccc(OC)c2)c([O-])c1C(=O)Nc1cccc(OC)c1 | -5 | 0.73
34 | O=C1COc2ccccc2N1c1c(-c2ccccc2)c2ccccc2[nH]c1=O | -9 | 1.01
35 | COc1ccccc1N(CC(F)(F)F)C(=O)c1nc(C)sc1C | -12 | 1.73
36 | COC1(C(C)NCC(C)(O)c2ccsc2)CCCC1 (stereo not drawn) | -5 | 0.82
37 | CN1CCCN(C(=O)NC(C)(C)C)c2nc3ccccc3nc21 | -1 | 0.18
38 | CC(C)(C)c1cn2c3ccccc3nc2n1CCN1CCCCC1 | -11 | 1.37
39 | Clc1cc2c(cc1CN1CC[C@H]3CC[C@@H](C1)N3)OCO2 | -16 | 1.62
40 | CCCc1nc2cccnc2n1[C@H]1CCN(S(=O)(=O)c2cccnc2)C1 | -7 | 0.74
41 | COc1ccccc1C(=O)N1CCN(Cc2nnc(C)s2)CC1 | 6 | -1.16
42 | COc1ccc(Cl)cc1NC(=O)Cn1c(=O)c(N2CCCCC2)nc2ccccc21 | -17 | 1.67
43 | C[C@H]1CN(C(=O)c2cc(N(C)C)ccn2)C(C)(C)CO1 | -7 | 0.71
44 | CCN1C[C@@H](C(=O)N(Cc2cnn(C)c2)C2CCCCC2)CC1=O | -16 | 2.3
45 | CC(=O)Nc1cccc(C#CCN2CCN(c3ccc(F)cc3)CC2)c1 | 32 | -1.28
46 | CC(C)=CCC/C(C)=C/CN1CCC[C@H]1C(=O)O | -11 | 2.13
47 | Cc1noc(C)c1CNCc1c(C(F)(F)F)cnn1C | -3 | 0.42
48 | CCCn1ncnc1[C@H](C)NS(=O)(=O)N1CCCC1 | -17 | 2.24
49 | C=C(C)COCCNC(=O)c1ccc(Br)c(O)c1 | -13 | 1.33
50 | COc1ccc(C(C)CC(=O)N2CCCCC2c2nc(-c3ccccc3)c[nH]2)cc1 (stereo not drawn) | 0 | -0.02
51 | Cc1nn(Cc2nc([C@H]3CCOC3)no2)c(=O)c2ccccc12 | -16 | 1.54
52 | O=C(c1c[nH]nn1)N1CCC(OCc2ccc(Cl)c(Cl)c2)CC1 | -5 | 0.94
53 | CCCN(CC(=O)N(Cc1ccccc1)Cc1ccc(C)o1)C(=O)N(C)C | -6 | 0.85
54 | CC1(C)[C@H](C(=O)Nc2ccc(Br)cc2)CC[C@]1(C)C(=O)O | -10 | 1.32
